Z-score data for 112 compounds are collected here from PubChem BioAssay AID488969 (Vanderbilt High Throughput Screening Facility, 2010).

In all, about 110,000 compounds were measured (“z-score”: median about -0.1, highest 2% from about 2 on). The list shows a part of the results. The source made the active and inactive calls.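 Rule for the calls: active = z-score in the third read window above 3 or below -3; inactive = the rest.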

For this test, the target named is Metabotropic glutamate receptor 8 (Rattus norvegicus) (UniProt P70579). Nature of the test: mGluR8 Gi/Go-coupled signaling modulation – cell-based, rat, thallium flux, HTS, primary screen (AID 488969). The settings on record: HEK293 rat mGluR8, GIRK (G protein-gated inwardly rectifying potassium channel) thallium flux, FluoZin2; at 10 µM; stronger effect = higher value; submaximal glutamate (EC20) added with thallium.
Sequence of UniProt P70579 (P70579 whole entry, looked up): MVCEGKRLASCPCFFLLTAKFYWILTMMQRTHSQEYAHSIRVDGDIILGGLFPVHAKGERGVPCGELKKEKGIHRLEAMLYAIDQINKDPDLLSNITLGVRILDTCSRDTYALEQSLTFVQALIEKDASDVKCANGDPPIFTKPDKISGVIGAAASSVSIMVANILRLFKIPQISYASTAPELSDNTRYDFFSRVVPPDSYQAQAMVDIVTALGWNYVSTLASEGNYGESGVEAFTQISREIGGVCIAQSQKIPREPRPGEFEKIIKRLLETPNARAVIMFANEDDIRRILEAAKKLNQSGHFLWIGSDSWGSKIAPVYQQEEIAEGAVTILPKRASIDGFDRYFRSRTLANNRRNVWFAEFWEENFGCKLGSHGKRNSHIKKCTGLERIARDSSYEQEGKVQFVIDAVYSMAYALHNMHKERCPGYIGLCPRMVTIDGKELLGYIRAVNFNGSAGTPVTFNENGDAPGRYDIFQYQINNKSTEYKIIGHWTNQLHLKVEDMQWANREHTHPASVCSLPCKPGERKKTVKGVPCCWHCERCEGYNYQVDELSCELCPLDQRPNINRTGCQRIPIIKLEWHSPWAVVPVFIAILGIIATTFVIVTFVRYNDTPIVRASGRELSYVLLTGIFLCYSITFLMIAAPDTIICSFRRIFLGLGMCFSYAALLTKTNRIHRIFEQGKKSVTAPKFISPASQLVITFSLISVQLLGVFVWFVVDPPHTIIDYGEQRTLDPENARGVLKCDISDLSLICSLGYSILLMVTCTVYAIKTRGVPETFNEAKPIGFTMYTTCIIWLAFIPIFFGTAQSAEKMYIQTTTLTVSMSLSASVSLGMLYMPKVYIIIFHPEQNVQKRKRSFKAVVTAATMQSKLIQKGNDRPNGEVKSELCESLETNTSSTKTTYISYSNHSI
For `CC(=O)c1ccc(Cc2ncc(C(F)(F)F)cc2Cl)s1`, the z-score is -0.823.

`COc1ccc(C2CC(c3cc(OC)ccc3OC)n3nnnc3N2)cc1` (configuration not stated): the z-score was -0.434.

As for `O=C(Oc1cccc2cccnc12)c1ccc2c(c1)OCCO2`, the z-score is -0.00985.

`CC(=O)NCCOc1cccc(OCCNC(C)=O)c1` came in with a z-score of 0.179.

Turning to `CCN(CC)S(=O)(=O)c1ccc2c(c1)nc(SCn1nnc3ccccc3c1=O)n2CC`, the z-score was -0.0802.

For the compound `Cc1noc(C)c1S(=O)(=O)Nc1ccc(C(=O)N2CCN(c3ccc(Cl)cc3)CC2)cc1`, the z-score was -0.984.

As to `Cc1ccc(C2=NN=C(NC(=O)CSc3nc(C)cc(C)n3)SC2)cc1`, the z-score is -0.0372.

As to `O=C(N=Nc1c(O)n(Cc2ccccc2)c2ccccc12)c1cc2ccccc2cc1O`, the z-score was -0.0283.

For the compound `O=C(OC(C(=O)NCC1CCCO1)c1ccccc1F)c1ccco1` (configuration not stated), the z-score was 0.0215.

Turning to `COC(=O)C(NNc1ccccc1)(NC(=O)c1cccc(F)c1)C(F)(F)F` (configuration not stated), the z-score was -0.19.

On to `CCOC(=O)N1CCN(C(=O)CN(Cc2ccc(Cl)cc2)S(C)(=O)=O)CC1`, for which the z-score stood at 1.38.

Consider `CCCCNc1cc(NC(C)=O)cc2cc(OC)c(OC)cc12`, for which the z-score is -0.206.

Compound `O=C(NC(=S)Nc1ccc2c(c1)C(=O)c1ccccc1C2=O)c1ccc(F)cc1` showed a z-score of 0.202.

For the compound `O=C(NCCc1nc2ccccc2[nH]1)/C(=C/c1ccc2c(c1)OCO2)NC(=O)c1ccccc1`, the z-score was -0.434.

As to `Cc1cc(N2CCCCC2)nc2ccc(NC(=O)CCC(=O)NCCC(C)C)cc12`, the z-score worked out at 0.0395.

Turning to `CCN(CC)C(=O)C1CCCN(c2ccc([N+](=O)[O-])cc2/C=N/NC(=O)c2cccc(O)c2)C1` (configuration not stated), the z-score was -0.317.

As to `C/C=C(\C)c1nnc(NC(=O)c2ccco2)s1`, the z-score was -0.358.

`COC(=O)NCc1cc2cc(Cl)ccc2[nH]1` came in with a z-score of 0.0934.

In turn, `Cc1nn(-c2ccc(F)cc2)c2sc(C(=O)OCC(=O)N3CCC(C)CC3)cc12` had a z-score of 0.389.

For the compound `NC(=O)C1CCN(C(=O)CCSc2ccccc2)CC1`, the z-score amounted to 0.469.

As for `COc1ccc(-c2nc(C#N)c(NCCc3ccccc3)o2)cc1OC`, the z-score was -1.21.

Consider `Cn1cccc1C(=O)OCC(=O)c1cc2ccccc2o1`, for which the z-score was -0.00869.

`CCCNC(=O)Cn1nc([N+](=O)[O-])c([N+](=O)[O-])c1C`: the z-score is -0.278.

Regarding `Cc1c(NC(=O)c2n[nH]c(=O)c3ccccc23)c(=O)n(-c2ccccc2)n1C`, the z-score is -0.159.

For the compound `CCCC(=O)Nc1nc2nc(-c3ccccc3)cc(=O)n2[nH]1`, the z-score is -0.289.

Turning to `COc1ccc(Cl)cc1NC(=O)C(C)N(C)Cc1ccc(C(F)(F)F)cc1` (configuration not stated), the z-score was -0.0204.

`Cn1cccc1Cc1nnc(SCC(=O)NC2CCCC2)n1-c1ccc(F)cc1`: the z-score is 2.33.

Compound `O=C(O)/C=C/c1coc2ccc(F)cc2c1=O` came in with a z-score of 0.248.

Take `Cn1c(=O)c2c(nc(SCc3cccnc3)n2Cc2ccc(F)cc2)n(C)c1=O`: the z-score is -0.105.

Regarding `CCOc1ccc(C(=O)C2CCN(C(=O)c3ccccc3C(=O)O)CC2)cc1`, the z-score was -0.0212.

The compound `Cc1ccc(OCC(=O)Nc2ccc(O)c(C(=O)O)c2)cc1C` showed a z-score of 0.0933.

As for `Cc1ccc2nc(NC(=O)C3=NN(c4ccccc4)C(=O)CC3)sc2c1`, the z-score came out at 0.175.

With `O/C(=C\Sc1nnc(Cc2ccccc2)o1)c1ccc(Br)cc1`, the z-score was -0.229.

The compound `Cc1cc(C(=O)Nc2nc3c(s2)CCCC3)no1` registered a z-score of 0.438.

In turn, `CCOC(=O)N1CCN(C(=O)CN(c2ccc(OC)cc2)S(C)(=O)=O)CC1` gave a z-score of 0.0562.

As for `Cc1cc(C)c(NC(=O)CN2CCOCCOCCOCCOCC2)c(C)c1`, the z-score is -0.281.

The compound `CCOc1nc(-c2ccccc2O)nc2ccccc12` registered a z-score of 0.892.

As for `CC1(c2ccccc2)NC(=O)N(Cc2ccc([N+](=O)[O-])cc2)C1=O` (configuration not stated), the z-score is -0.0601.

Consider `O=C(c1ccc(Cl)c(S(=O)(=O)N2CCCCCC2)c1)N1CCN(CCO)CC1`, for which the z-score is 0.275.

As for `CCC(=O)NC(=S)Nc1cccc(C(C)=O)c1`, the z-score was determined as 0.175.

As to `CCOc1ccc(CC(C(=O)NN)C(=O)NN)cc1CN(C)C`, the z-score was -0.0777.

Regarding `Cc1ccc(N(C(C)C(=O)Nc2cc(Cl)ccc2Oc2ccccc2)S(C)(=O)=O)cc1` (configuration not stated), the z-score was -0.0281.

As to `O=C(c1cccc(C(=O)N2CCN(c3ccccc3)CC2)c1)N1CCN(c2ccccc2)CC1`, the z-score is -0.329.

In the case of `O=c1ccc(/C=C/c2ccccc2)nn1Cc1ccccc1`, the z-score is -0.00241.

For the compound `COc1cc(CN(C)CCc2ccccc2)ccc1OCc1ccccc1`, the z-score is -0.78.

Compound `COC(=O)c1ccc(C2C(C(=O)OCC(C)C)=C(C)N=C3SCCC(=O)N32)cc1` (configuration not stated) had a z-score of 1.35.

Consider `CN(C)C(=O)c1ccccc1-c1ccccc1`, for which the z-score stood at 0.0914.

For `N#Cc1c(-c2ccccc2)cc2nc3ccccc3n2c1N`, the z-score was -0.183.

Take `CC(C)CCn1c(CN2CCN(Cc3ccccc3)CC2)nc2c1c(=O)n(C)c(=O)n2C`: the z-score came out at 0.709.

In the case of `CCOCC(=O)Nc1ccc(C)c(Cl)c1`, the z-score was -0.115.

Turning to `Cc1ccc2nc(SCC(=O)Nc3cc(C)on3)[nH]c2c1`, the z-score was -0.134.

Turning to `CCn1c(Cc2c(C)[nH]c3ccccc23)nnc1SCC(N)=O`, the z-score was -0.0619.

In the case of `Cc1ccc(CSc2nncn2-c2ccccn2)cc1`, the z-score was 0.733.

On to `CC(N)C12CC3CC(CC(O)(C3)C1)C2` (configuration not stated), for which the z-score was 0.0862.

As for `CCOc1ccc(NC(=O)CSc2nc3cccnc3n2CCOC)cc1`, the z-score was -0.17.

`CC1=CC(=C(C#N)C#N)C=C(C)N1CCN1CCN(C(=O)Nc2cccc(Cl)c2)CC1` registered a z-score of 0.093.

Regarding `COc1ccc(NC(=O)C2CCCN(S(=O)(=O)c3ccc4c(c3)oc(=O)n4C)C2)cc1OC` (configuration not stated), the z-score is 0.13.

Compound `CC(C)CNc1c(N)c(=O)oc2ccccc12` gave a z-score of 0.318.

As to `CSc1ccc(/C=C/C(=O)c2ccc(NC(=O)Cc3ccccc3)cc2)cc1`, the z-score was -0.0401.

With `COc1cccc(N2CC(C)Cn3c2nc2c3c(=O)n(CCN3CCOCC3)c(=O)n2C)c1` (configuration not stated), the z-score stood at 0.0399.

Take `CCCc1nc2ccc(NC(=O)c3ccco3)cc2c(=O)n1Cc1ccc(Cl)cc1`: the z-score is -0.191.

`CCN(CC(=O)Nc1ccc(N2CCOCC2)cc1)Cc1nc2ccccc2c(=O)[nH]1` had a z-score of 0.0413.

Turning to `CCN(CC)CCP(=O)(c1ccccc1)c1ccccc1`, the z-score is -0.0169.

The compound `Cc1ccc(Nc2nc(C)cc(C)c2C(N)=O)cc1` came in with a z-score of 0.12.

In turn, `Cc1c(Cl)cnc(NC(=O)COC(=O)Cc2coc3ccc4ccccc4c23)c1Cl` had a z-score of 0.0158.

With `Cc1nc(=O)c(-c2ccccc2)c(C)n1CCCO`, the z-score is -0.193.

Regarding `CCn1ncc(/C=C/C(=O)NCc2cnn(C)c2C)c1C`, the z-score is -0.00194.

In the case of `COCCCNc1nc(SCc2ccccc2)nc2sc3c(c12)CCC3`, the z-score was 0.635.

Turning to `CCc1nnc(N2C(=O)c3cccc4cccc(c34)C2=O)s1`, the z-score was 0.0435.

As to `COC(=O)Nc1nnc(/C=C/c2ccccc2)s1`, the z-score is -0.268.

The compound `N=C(N)CCCOc1ccccc1-c1ccccc1` came in with a z-score of 0.24.

As for `O=C(CCc1ccccc1)Nc1ccc(N2CCCCC2)cc1`, the z-score was -0.101.

On to `CC(C)C(=O)N(Cc1ccccc1)c1ccccn1`, for which the z-score stood at 0.16.

In the case of `COC(=O)c1cc(=O)n(CCc2ccccc2F)c(=Nc2ccc(F)c(Cl)c2)s1`, the z-score is -0.11.

With `CCc1ccccc1NC(=O)c1onc(C)c1Cl`, the z-score was -0.446.

As to `C=CCn1c(NCc2cc(C)ccc2O)nc2ccccc21`, the z-score is -0.0349.

For the compound `CS(=O)(=O)N(Cc1ccccc1)c1ccc(C(=O)N2CCc3ccccc3C2)cc1`, the z-score was -1.2.

In the case of `CN(CCOC(=O)c1cccc(F)c1)Cc1ccccc1`, the z-score is -0.083.

For the compound `Cc1cc(NC(CC(C)C)C(=O)O)nc(Cc2ccccc2)n1` (configuration not stated), the z-score is -0.583.

Regarding `CCCCOc1cccc(C(=O)NNC(=S)NC2CCCCC2)c1`, the z-score came to 0.969.

The compound `CCCCOC(=O)C1C2C=C[C@]3(CN(CCCOC)C(=O)[C@H]13)O2` (some centres not stated) came in with a z-score of 1.34.

For `CCCc1nc2scc(-c3ccccc3)c2c(=O)n1N`, the z-score is active: -3.26.

Turning to `O=C(CSc1nnc(-c2ccccc2O)o1)Oc1ccc(Br)cc1`, the z-score was -0.839.

Regarding `Cc1ccc(Nc2nc(Nc3ccc(C)cc3)nc(SC3=NCCS3)n2)cc1`, the z-score turned out to be 0.127.

For the compound `CCN1CCCC1CNC(=O)c1cc(NC(C)=O)c(N(C)C)cc1OC` (configuration not stated), the z-score is -0.154.

The compound `COC(=O)c1ccc(NC(=S)Nc2ccc3ccccc3c2)cc1` had a z-score of 0.0296.

In the case of `Cc1ccc(C(=O)C(OC(=O)CNC(=O)c2ccc(Cl)cc2)c2ccccc2)cc1` (configuration not stated), the z-score is -0.207.

As to `CCOC(=O)C1CCN(C(=O)c2cnn3c(C)cc(C)nc23)CC1`, the z-score is -0.493.

Take `CC(C)(C)c1cc(-c2ccco2)c(C#N)c(SCC#N)n1`: the z-score is -0.116.

As for `Nc1nnc(CSc2ccc(Cl)cc2)s1`, the z-score was -0.359.

Turning to `COc1cccc2c(=O)n(CC(=O)N3CCC(C)CC3)ccc12`, the z-score is 0.139.

In turn, `O=S(=O)(NCc1cc(-c2ccccc2)no1)c1ccc(Cl)cc1` came in with a z-score of 0.245.

In the case of `Cc1cc(C(=O)NCC(=O)OCC(=O)N(C2CCCCC2)C2CCCCC2)ccc1[N+](=O)[O-]`, the z-score was -0.388.

For the compound `NC(=O)/C(=N\OC(=O)c1ccco1)c1nc(-c2ccc(Br)cc2)cs1`, the z-score was 0.35.

In turn, `CCN(CC)CC#CCC(C)(c1ccccc1)c1ccccc1` had a z-score of 0.762.

On to `Cn1c(=O)c2c(nc(NCc3cccnc3)n2Cc2ccc(Cl)cc2)n(C)c1=O`, for which the z-score came out at 0.445.

As for `Cc1ccccc1N=Cc1cc2c(cc1O)OC(N)=C(C#N)C2c1ccccc1` (configuration not stated), the z-score is -0.548.

For the compound `Nc1ccnn1Cc1ccc(Br)s1`, the z-score was -0.502.

For the compound `Cc1ccc(C2C(C#N)=C(N)Oc3n[nH]c(-c4cccs4)c32)cc1` (configuration not stated), the z-score stood at 0.0389.

On to `CCOC(=O)c1ccc(N2C(=O)CC(N3CCC(Nc4ccc(F)cc4)CC3)C2=O)cc1` (configuration not stated), for which the z-score worked out at 0.975.

In the case of `CC(=O)N1CCN(Cc2nc3cc(NC(=O)c4ccccc4C)ccc3n2C)CC1`, the z-score is -0.36.

For `COc1ccc(Cl)cc1NC(=S)NCc1ccco1`, the z-score was determined as 0.347.

For the compound `COc1cccc(-c2ccc(-c3noc(-c4cccs4)n3)c(OC)n2)c1`, the z-score was 0.465.

`CCc1ccc2c(c1)c(N=NC1=NC(=O)CS1)c(O)n2CC` gave a z-score of 2.98.

Take `Cc1ccc(CNC(=O)c2ccc(Cl)cc2[N+](=O)[O-])cc1`: the z-score was found to be 0.104.

`Cc1cc(C)n(Cc2ccc(Cl)c(Cl)c2)c(=O)c1S(=O)(=O)c1ccccc1` yielded a z-score of 0.922.

As for `Cc1ccc(SCc2ccc(C(=O)NCc3cccnc3)cc2)cc1`, the z-score is -0.334.

On to `COc1ccc(C(=O)CSc2nccc(=O)[nH]2)cc1`, for which the z-score is -0.0441.

`CCn1cc(C(=O)NCC2CCCO2)c(=O)c2cc(S(=O)(=O)N3CCCCC3)ccc21` (configuration not stated) gave a z-score of 1.37.

`c1ccc(Oc2cccc(OCCCn3cncn3)c2)cc1`: the z-score is -0.364.

With `CCOC(=O)c1cc2sccc2n1CC(=O)Nc1ccc(OC)cc1OC`, the z-score was -0.246.

For `NS(=O)(=O)c1ccc(CCNc2nc(CN3CCOCC3)nc3sc4c(c23)CCC4)cc1`, the z-score was -0.549.
